Measured values from PMC7062751.
Results are given in words; binding and its absence hold for the method and conditions named. For some of these results: In cells and extracts the contact can be indirect. Some entries that bind do so weakly or less than the wild type.

Chains of the proteins cited; added tags and fusions are not shown. Lines headed by an entry give the natural chain unless they say otherwise; changes in a name come on top. A line that says so, or that is headed by a name, gives the form on record, which may keep a tag or linker.
UniProt Q9Y6I9: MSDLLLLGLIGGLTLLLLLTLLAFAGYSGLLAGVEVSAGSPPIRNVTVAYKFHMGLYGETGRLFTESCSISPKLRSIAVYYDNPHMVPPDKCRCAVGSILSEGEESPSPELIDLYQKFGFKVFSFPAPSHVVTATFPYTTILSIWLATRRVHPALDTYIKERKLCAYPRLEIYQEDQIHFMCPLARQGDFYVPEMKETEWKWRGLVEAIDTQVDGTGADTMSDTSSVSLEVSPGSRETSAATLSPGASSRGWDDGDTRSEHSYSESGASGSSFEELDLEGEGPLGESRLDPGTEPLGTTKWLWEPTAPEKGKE
p97 E578Q-myc-Strep (ATPase-defective, substrate-trapping variant) (P55072, form named): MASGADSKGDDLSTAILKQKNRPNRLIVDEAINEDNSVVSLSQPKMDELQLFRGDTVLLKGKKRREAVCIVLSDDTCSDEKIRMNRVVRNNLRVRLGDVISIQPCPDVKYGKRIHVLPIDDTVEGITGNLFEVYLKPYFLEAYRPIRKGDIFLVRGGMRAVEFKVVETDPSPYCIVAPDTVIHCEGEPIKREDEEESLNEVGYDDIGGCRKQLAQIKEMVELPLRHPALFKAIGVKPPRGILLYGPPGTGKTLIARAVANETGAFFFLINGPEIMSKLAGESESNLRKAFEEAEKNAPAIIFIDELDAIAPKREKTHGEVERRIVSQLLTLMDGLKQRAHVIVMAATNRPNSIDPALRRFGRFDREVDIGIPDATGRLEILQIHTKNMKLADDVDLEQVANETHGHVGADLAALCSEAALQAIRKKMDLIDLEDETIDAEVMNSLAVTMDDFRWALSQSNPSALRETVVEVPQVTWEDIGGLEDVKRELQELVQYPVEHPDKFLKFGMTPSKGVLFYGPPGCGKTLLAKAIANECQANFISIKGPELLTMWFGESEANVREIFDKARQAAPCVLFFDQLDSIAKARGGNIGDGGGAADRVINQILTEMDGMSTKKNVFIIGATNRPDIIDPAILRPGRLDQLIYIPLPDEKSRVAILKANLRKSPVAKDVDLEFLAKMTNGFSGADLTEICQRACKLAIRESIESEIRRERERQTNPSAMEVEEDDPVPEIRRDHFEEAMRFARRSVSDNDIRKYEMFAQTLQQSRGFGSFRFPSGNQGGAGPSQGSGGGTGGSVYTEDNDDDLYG
UniProt P12004: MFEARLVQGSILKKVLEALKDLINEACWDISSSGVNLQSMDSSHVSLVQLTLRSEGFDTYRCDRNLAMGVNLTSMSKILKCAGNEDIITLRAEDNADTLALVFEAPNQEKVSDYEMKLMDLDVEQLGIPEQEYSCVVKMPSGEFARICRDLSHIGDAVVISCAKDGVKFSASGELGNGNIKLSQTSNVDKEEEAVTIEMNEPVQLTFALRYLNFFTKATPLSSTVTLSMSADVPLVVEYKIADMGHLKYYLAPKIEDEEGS
UniProt P11387: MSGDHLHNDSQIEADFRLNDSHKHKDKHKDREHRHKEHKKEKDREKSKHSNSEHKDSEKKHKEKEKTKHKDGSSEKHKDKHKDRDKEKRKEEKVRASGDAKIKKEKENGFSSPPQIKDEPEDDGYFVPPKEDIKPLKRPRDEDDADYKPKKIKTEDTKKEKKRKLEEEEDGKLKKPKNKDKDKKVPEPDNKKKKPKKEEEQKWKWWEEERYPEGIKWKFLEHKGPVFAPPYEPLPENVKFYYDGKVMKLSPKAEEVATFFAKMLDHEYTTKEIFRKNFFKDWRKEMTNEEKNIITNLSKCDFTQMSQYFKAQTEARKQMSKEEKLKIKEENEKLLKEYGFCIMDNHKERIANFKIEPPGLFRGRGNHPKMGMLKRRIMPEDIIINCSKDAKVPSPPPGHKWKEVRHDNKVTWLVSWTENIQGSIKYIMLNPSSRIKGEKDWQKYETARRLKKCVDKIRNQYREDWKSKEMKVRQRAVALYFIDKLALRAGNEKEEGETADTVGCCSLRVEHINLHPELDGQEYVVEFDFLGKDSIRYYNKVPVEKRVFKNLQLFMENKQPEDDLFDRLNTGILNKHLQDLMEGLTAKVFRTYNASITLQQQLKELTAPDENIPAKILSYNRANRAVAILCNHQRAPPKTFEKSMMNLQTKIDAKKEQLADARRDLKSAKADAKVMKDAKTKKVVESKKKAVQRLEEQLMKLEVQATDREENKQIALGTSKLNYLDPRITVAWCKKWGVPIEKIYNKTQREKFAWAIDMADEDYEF

Experiments:
TEX264-SSH = TEX264-SSH (UniProt Q9Y6I9); assay: co-IP; anti-Strep-tag immunoprecipitates from doxycycline-inducible TEX264-SSH HEK293 Flp-In TRex cells, with and without Dox, immunoblot
[1] = target: recombinant p97-S tag (human) (UniProt P55072); assay: pull-down; p97-S tag coupled to S-protein Agarose, incubated 2 h with TEX264^WT, TEX264^ΔSHP and/or recombinant TOP1; 137 mM NaCl, 20 mM Tris–HCl pH 7.0, 0.5% Triton X-100; 4 °C coupling; both purified
TEX264-FLAG, wild type [2] = target: TEX264-FLAG, wild type (UniProt Q9Y6I9); assay: condition: only after treatment of the cells with 1 µM CPT for 1 h; co-IP; FLAG immunoprecipitates of TEX264-FLAG from HEK293 cells treated with 1 µM CPT for 1 h
TEX264-FLAG, wild type [3] = target: TEX264-FLAG, wild type (UniProt Q9Y6I9); assay: co-IP; anti-FLAG M2 agarose on lysates of HEK293 or ΔTEX264 HEK293 cells expressing FLAG-tagged TEX264 variants; Benzonase, ethidium bromide; cells treated with DMSO or CPT (25 nM, 1 h)
TEX264 E194A-FLAG = TEX264 E194A-FLAG (UniProt Q9Y6I9); assay: as above
SPRTN-SSH = target: T1, SPRTN-SSH (UniProt Q9H040); assay: co-IP; anti-Strep-tag immunoprecipitates from extracts of HEK293 cells expressing SPRTN-SSH, control or TEX264 siRNA
T1 sequence: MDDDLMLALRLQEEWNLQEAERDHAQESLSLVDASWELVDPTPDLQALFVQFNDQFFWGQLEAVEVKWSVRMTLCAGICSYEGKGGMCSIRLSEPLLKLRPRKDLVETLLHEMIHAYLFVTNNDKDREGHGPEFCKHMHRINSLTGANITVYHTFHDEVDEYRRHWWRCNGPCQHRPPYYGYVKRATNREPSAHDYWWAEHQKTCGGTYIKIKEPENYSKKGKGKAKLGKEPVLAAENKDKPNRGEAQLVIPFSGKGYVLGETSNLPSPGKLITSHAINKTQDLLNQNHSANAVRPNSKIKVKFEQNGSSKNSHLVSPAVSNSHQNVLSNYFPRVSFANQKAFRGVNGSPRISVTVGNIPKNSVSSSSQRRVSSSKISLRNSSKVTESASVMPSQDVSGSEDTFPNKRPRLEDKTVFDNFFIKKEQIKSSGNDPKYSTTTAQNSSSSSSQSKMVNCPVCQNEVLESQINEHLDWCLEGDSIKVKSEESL

[4] = target: p97 E578Q-myc-Strep (ATPase-defective, substrate-trapping variant) (UniProt P55072); assay: co-IP; Strep-Tactin Sepharose on lysates of HEK293 cells (wild type or ΔTEX264) expressing p97-myc-Strep variants; Benzonase, ethidium bromide; cells untreated or treated with DMSO, CPT (50 nM), CB-5083 (10 µM)
p97-myc-Strep, wild type = p97-myc-Strep, wild type (UniProt P55072); assay: as above

Row | binding (TEX264-SSH) | binding (TEX264-FLAG, wild type [3]) | binding (SPRTN-SSH) | Substance | other results
1 | binds |  |  | PCNA (endogenous) (from UniProt P12004 1-261) | 
2 |  |  |  | recombinant TOP1 (from UniProt P11387 1-765) | binding [1]: binds weakly
3 | binds | binds |  | Topoisomerase 1 (endogenous TOP1) (from UniProt P11387 1-765) | binding (TEX264-FLAG, wild type [2]): no binding
4 | binds | binds | binds | p97 ATPase (endogenous) (from UniProt P55072 1-806) | binding (TEX264 E194A-FLAG): binds
5 |  |  | binds | Testes-expressed 264 (endogenous TEX264) (from UniProt Q9Y6I9 1-313) | binding [4]: binds; binding (p97-myc-Strep, wild type): binds
6 |  | binds |  | Modified species of TOP1 (from UniProt P11387 1-765) | 
